Experimental data reported in PubChem BioAssay AID504339 (National Center for Advancing Translational Sciences (NCATS), 2011).
The campaign covered roughly 390,000 compounds. About 17,000 (4.4%) were called active. The inconclusive results got no clear call from the source; some entries with a clear call stand among them for comparison. Calls come from the whole dose curve; as a rule, active = well fitted inhibition curve with a large enough effect; inconclusive = small, poorly fitted or top-dose-only effect; inactive = no such curve, though single readings can be large or run the other way. Potencies beside an inconclusive call are fits to weak or partial responses and may not hold up.

These compounds were tested against Lysine-specific demethylase 4A (Homo sapiens) (UniProt O75164) (assay: qHTS Assay for Inhibitors of JMJD2A-Tudor Domain). Conditions: AlphaScreen JMJD2A-Tudor / H3K4me3 peptide binding; activity change, negative = inhibition: at 114 µM (top of the series).
% is set by controls: 0 for no effect and ±100 for the full control effect; potency is the fitted concentration of half-maximal effect; tags give direction and shape of the fitted curve.
Note: nearly all actives have a fitted effect of over 50% in size.

Chain of UniProt O75164 (O75164 whole entry, looked up, the tested form may be a part): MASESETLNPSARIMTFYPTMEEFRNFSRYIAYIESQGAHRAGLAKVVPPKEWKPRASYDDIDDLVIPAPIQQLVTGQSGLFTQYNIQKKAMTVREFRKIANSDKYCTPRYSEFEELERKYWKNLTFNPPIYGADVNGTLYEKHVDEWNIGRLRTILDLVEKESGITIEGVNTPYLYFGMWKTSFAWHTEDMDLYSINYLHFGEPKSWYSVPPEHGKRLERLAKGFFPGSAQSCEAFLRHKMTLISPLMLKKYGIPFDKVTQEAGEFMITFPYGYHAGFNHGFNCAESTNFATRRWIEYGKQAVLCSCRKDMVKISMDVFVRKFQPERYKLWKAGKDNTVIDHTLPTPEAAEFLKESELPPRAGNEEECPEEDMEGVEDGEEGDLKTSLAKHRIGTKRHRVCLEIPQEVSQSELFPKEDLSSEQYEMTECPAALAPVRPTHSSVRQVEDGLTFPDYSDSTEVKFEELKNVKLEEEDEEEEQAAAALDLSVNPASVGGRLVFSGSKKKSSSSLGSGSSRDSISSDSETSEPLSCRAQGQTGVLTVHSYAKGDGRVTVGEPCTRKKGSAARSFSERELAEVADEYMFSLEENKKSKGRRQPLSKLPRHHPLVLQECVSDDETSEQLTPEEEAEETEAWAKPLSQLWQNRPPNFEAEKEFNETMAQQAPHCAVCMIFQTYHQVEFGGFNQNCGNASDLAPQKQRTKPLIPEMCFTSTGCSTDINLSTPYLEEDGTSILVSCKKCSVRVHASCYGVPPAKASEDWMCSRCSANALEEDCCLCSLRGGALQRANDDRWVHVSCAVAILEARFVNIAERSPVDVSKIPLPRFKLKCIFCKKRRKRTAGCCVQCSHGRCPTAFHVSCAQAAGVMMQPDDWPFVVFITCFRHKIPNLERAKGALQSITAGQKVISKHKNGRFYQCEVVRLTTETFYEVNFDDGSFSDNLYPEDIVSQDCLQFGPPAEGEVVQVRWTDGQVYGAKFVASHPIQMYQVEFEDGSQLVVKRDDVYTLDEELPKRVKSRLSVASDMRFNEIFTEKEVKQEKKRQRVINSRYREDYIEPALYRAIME

Structure (SMILES)	Potency	activity change, negative = inhibition
CCOC(=O)N1CCc2c(sc(NCc3sccc3C)c2C(=O)Nc2ccc(OC)cc2OC)C1	inconclusive: 17.8 µM [inhibitor, full curve]	–
Cc1cccc(-c2nc(C#N)c(N3CCCCCC3)o2)c1	inconclusive: 50.1 µM [inhibitor, partial curve]	–
CCOC(=O)c1c(C)[nH]c(C2=NNC(=NC3CC3)SC2)c1C	inconclusive: 56.2 µM [inhibitor, partial curve]	–
CN(CCCS(=O)(=O)[O-])c1ccc(/C=C/c2ccc3ccccc3[n+]2C)cc1	inconclusive: 28.2 µM [inhibitor, partial curve]	–
COC(=O)C1=C(C)OC(N)=C(C#N)C1c1ccco1 (stereo not given)	–	inactive: -1.88%
CC(C)C[C@H](NS(=O)(=O)c1ccc(Br)cc1)C(=O)O	active: 89.1 µM	–
Cc1cc2nc(-c3ccc(SCC(=O)N4CCN(C(=O)c5ccco5)CC4)nc3)[nH]c2cc1C	inconclusive: 28.2 µM [inhibitor, full curve]	–
CCCCOc1ccc(C(=O)Oc2cc(C)[nH]c(=O)c2[N+](=O)[O-])cc1	inconclusive: 50.1 µM [inhibitor, partial curve]	–
CN(C(=O)C1CCC(=O)N(CCc2ccc(Cl)cc2)C1)C1CCOCC1 (stereo not given)	–	inactive: -14.6%
CCOC(=O)c1ccccc1-n1c(C)cc(C2N=C(N)Nc3nc4ccccc4n32)c1C (stereo not given)	inconclusive: 39.8 µM [inhibitor, partial curve]	–
COc1ccc(CNC(=O)CCNC(=O)c2ccc(C(C)(C)C)cc2)cc1OC	–	inactive: -2.76%
CCN(Cc1cccs1)C(=O)CN1C(=O)NC(c2ccccc2)(c2ccccc2)C1=O	–	inactive: -29.7%
CC(C)(C)C(=O)Nc1cccc(C(=O)c2cccc(NC(=O)C(C)(C)C)c2)c1	inconclusive: 39.8 µM [inhibitor, single point]	–
Cc1ccc(-c2cc(C(=O)NCc3ccco3)c3ccccc3n2)o1	active: 50.1 µM	–
O=C(O)C1CC1(c1ccccc1)c1ccccc1 (stereo not given)	–	inactive: -9.3%
CC(C)CCNC(=O)c1onc(CSc2ccccn2)c1C(=O)NCCC(C)C	active: 35.5 µM	–
O=C(COc1ccc(Cl)cc1)Nc1nnc(S(=O)(=O)N2CCc3ccccc32)s1	inconclusive: 3.16 µM [inhibitor, full curve]	–
N#CCC(=O)Nc1ccc(C(=O)OCC(=O)c2ccc3c(c2)OCCO3)cc1	active: 17.8 µM	–
CCOCCc1nn2c(=O)cc(COC(=O)CNC(=O)c3cccc(C)c3)nc2s1	–	inactive: -20%
CCOc1ccccc1-n1c(=S)sc2c(=O)n(-c3ccc(C)cc3)c(=S)[nH]c21	inconclusive: 56.2 µM [inhibitor, partial curve]	–
Cc1ccc2c(=O)cc(C(=O)Nc3nc4ccc(Cl)cc4s3)oc2c1C	inconclusive: 63.1 µM [inhibitor, partial curve]	–
COc1ccc(OC)c(NC(=O)Nc2ccc(O)c3ccccc23)c1	inconclusive: 39.8 µM [inhibitor, full curve, poor fit]	–
N#C/C(=C/c1ccc(-c2ccc(S(N)(=O)=O)cc2)o1)c1nc2ccccc2s1	–	inactive: -32.5%
O=C(CCS(=O)(=O)c1ccc(Cl)cc1)Nc1nnc(-c2ccco2)o1	inconclusive: 4.47 µM [inhibitor, full curve, poor fit]	–

Structure (SMILES)	Potency	activity change, negative = inhibition
CN=C(NC#N)SCC(=O)c1ccc(Cl)cc1Cl	inconclusive: 31.6 µM [inhibitor, partial curve, poor fit]	–
CC(C)N(C(=O)[C@H]1CC(CC(=O)NCCCn2ccnc2)C(=O)N2CCc3c([nH]c4ccccc34)[C@]12C)C(C)C (stereo not given in full)	inconclusive: 56.2 µM [inhibitor, partial curve, poor fit]	–
CCOC(=O)C1(C#N)Cc2ccccc2C1	–	inactive: 9.59%
CCN(CC)C1Oc2cc3c(cc2C(c2cc(OC)c(O)c(OC)c2)C1C)OCO3 (stereo not given)	inconclusive: 15.8 µM [inhibitor, full curve, poor fit]	–
NNC(=O)c1nc(-c2ccccc2)n2c1CCCCC2	inconclusive: 89.1 µM [inhibitor, partial curve]	–
O=C(CC12CC3CC(CC(C3)C1)C2)NCc1ccc(F)cc1	inconclusive: 25.1 µM [inhibitor, partial curve]	–
CCC(=O)Nc1ccc(NCc2ccc(-c3ccccc3)cc2)cc1	inconclusive: 56.2 µM [inhibitor, partial curve]	–
N#Cc1c(-c2ccco2)c2c([nH]c1=S)CCCC2	active: 28.2 µM	–
Cc1ccc(NC(=O)CCc2c(C)nn(-c3ccc(N4CCOCC4)nn3)c2C)cc1C	inconclusive: 44.7 µM [inhibitor, partial curve]	–
COc1ccc(/C=C/C(=O)Nc2ccc3nc4c(c(Nc5ccccc5OC)c3c2)CCCC4)cc1	inconclusive: 28.2 µM [inhibitor, partial curve]	–
Cc1cccc(-n2c(O)c(C=Nc3cc(O)ccc3C)c3ccccc3c2=O)n1	inconclusive: 35.5 µM [inhibitor, full curve, poor fit]	–
O=C(O)C1Oc2cc3ccccc3cc2O1	inconclusive: 56.2 µM [inhibitor, partial curve]	–
CN(C)c1ccc(C(=O)c2ccc(N(C)C)c3ccccc23)cc1	inconclusive: 44.7 µM [inhibitor, partial curve]	–
CN1CCN(NC(=O)CN2C(=O)/C(=C/c3c(Cl)cccc3Cl)SC2=S)CC1	inconclusive: 89.1 µM [inhibitor, single point]	–
O=C(O)c1cccc(NS(=O)(=O)c2ccc(Oc3ccc(S(=O)(=O)Nc4cccc(C(=O)O)c4)cc3)cc2)c1	–	inactive: -9.09%
CC(=O)N1c2c(cc(Br)cc2S(=O)(=O)N2CCN(c3cc(C)ccc3C)CC2)CC1C (stereo not given)	inconclusive: 17.8 µM [inhibitor, full curve, poor fit]	–
CCCCc1ccc(NC(=S)Nc2ccc(Nc3ccc(OC)cc3)cc2)cc1	active: 28.2 µM	–
C=CCOc1c(Br)cc(CNn2c(C)n[nH]c2=S)cc1OCC	inconclusive: 89.1 µM [inhibitor, single point]	–
CCN(CC)c1nc(-c2cccc(OC)c2O)nc2ccccc12	inconclusive: 5.01 µM [inhibitor, single point]	–
CN(Cc1ccc(Cl)cc1Cl)C(=O)c1cc(=O)c2ccccc2o1	inconclusive: 39.8 µM [inhibitor, single point]	–
CCCN(CCC)C(=O)Cn1c(=O)n(-c2cccc(OC)c2)c(=O)c2c3c(sc21)CCCC3	–	inactive: -12.3%
CCc1ccc(NCc2cc3cc4c(cc3n(CC(=O)Nc3cccc(OC)c3)c2=O)OCO4)cc1	inconclusive: 10 µM [inhibitor, full curve, poor fit]	–
CNCCCOc1cccc(OC(C)C)c1	active: 1.58 µM	–
O=[N+]([O-])c1cccc(N/N=C/c2cccc3ccccc23)c1	inconclusive: 44.7 µM [inhibitor, partial curve]	–

Structure (SMILES)	Potency	activity change, negative = inhibition
Nc1ccc(Oc2cc(N)cc(Oc3ccccc3)c2)cc1	inconclusive: 25.1 µM [inhibitor, single point]	–
Cc1ccnc(NC(=O)CCc2c[nH]c3ccccc23)c1	inconclusive: 79.4 µM [inhibitor, partial curve]	–
Nc1cc2nc3ccccc3oc-2cc1=O	inconclusive: 56.2 µM [inhibitor, partial curve]	–
Cc1ccc(-n2c(Cn3nc(C(F)(F)F)cc3C)n[nH]c2=S)cc1	active: 56.2 µM	–
O=[N+]([O-])c1ccccc1NCc1c(O)ccc2ccccc12	active: 44.7 µM	–
CCOC(=O)c1cc(-c2ccc(N)cc2)sc1N	active: 44.7 µM	–
O=C(Cn1cc(COc2ccccc2[N+](=O)[O-])nn1)c1ccc(O)cc1	inconclusive: 56.2 µM [inhibitor, partial curve]	–
CC(C)c1nc2sc3c(SCCN(C)C)ncnc3c2c2c1CCC2	inconclusive: 44.7 µM [inhibitor, partial curve]	–
Cc1ccc2nc(-c3ccc(Cl)c(NC(=O)COc4cccc(C)c4C)c3)oc2c1	–	inactive: 4.1%
CCOc1ccc(C(=S)NC2CCCCC2)cc1OCC	active: 79.4 µM	–
Cc1ccc(NC(=O)c2nc[nH]c2C(=O)N(C)Cc2ccccc2)cc1	–	inactive: -22.5%
Fc1ccccc1N1CCN(C(c2cccs2)c2nnnn2CCc2ccccc2)CC1 (stereo not given)	inconclusive: 89.1 µM [inhibitor, single point]	–
COc1ccccc1-c1ccc2nnc(SC)n2n1	–	inactive: -6.25%
Cc1nn(C(CC(=O)O)C(=O)O)c(C)c1Br (stereo not given)	inconclusive: 89.1 µM [inhibitor, single point]	–
CCN(CC)c1ccc(NC(=O)COC(=O)C23CCC(=O)N2c2ccccc2S3)cc1 (stereo not given)	inconclusive: 17.8 µM [inhibitor, full curve]	–
Cc1noc(C(=O)N2CCN(Cc3ccc4c(c3)OCO4)CC2)c1Cl	–	inactive: -8.28%
Cc1cccc(N2CCN(CCCNc3ncnc4onc(-c5ccc(Cl)cc5)c34)CC2C)c1 (stereo not given)	inconclusive: 56.2 µM [inhibitor, partial curve]	–
O=C(CCN1C(=O)C2C3C=CC(C3)C2C1=O)NCCc1ccccc1 (stereo not given)	–	inactive: -13.7% [at 11.4 µM]
Cc1cccc(C(=O)Nc2cccc(Br)c2)c1[N+](=O)[O-]	inconclusive: 17.8 µM [inhibitor, full curve, poor fit]	–
Cc1c(Cl)cccc1NC(=O)COCc1cc(-c2ccc3c(c2)OCO3)on1	–	inactive: -0.66%
C#CC(=O)CC1(CN(Cc2ccccc2)C(=O)OC(C)(C)C)CCCCC1	inconclusive: 20 µM [inhibitor, full curve]	–
C=CCN=C1S/C(=C/c2cccc([N+](=O)[O-])c2)C(=O)N1CC=C	–	inactive: -34.3%
